Assay results as given in patent US20250084170A1 (SHAPERON, published 2025).
Numbering of substitutions follows the chain as printed.

Experiments:
[1] = target: T1, PD-L1 antigen (human PD-L1 protein, Octet analyte) (human, UniProt Q9NZQ7 part only, limits assumed); test: BLI (Octet RED 96e), antibody on anti-human Fc tips, PD-L1 antigen as analyte, 1:1 global fit
T1 construct: also called human PD-L1 antigen

[2] = target: T2, CD47 antigen expressed on the cell surface (Expi-CHO_CD47 cell line) (human, UniProt Q08722); test: FACS competition on Expi-CHO_CD47 cells, competitor human SIRPalpha-His 10 µg/mL
T2 construct: whole, on cells; also called Expi-CHO cells stably expressing CD47 antigen

[3] = target: T3, CD47 antigen (human CD47 protein, Octet analyte) (human, UniProt Q08722 part only, limits assumed); test: BLI (Octet RED 96e), antibody on anti-human Fc tips, CD47 antigen as analyte, 1:1 global fit
T3 construct: also called human CD47 antigen

[4] = target: T4, PD-L1 antigen expressed on the cell surface (CHO-K1_PD-L1 cell line) (human, UniProt Q9NZQ7); test: FACS competition on CHO-K1_PD-L1 cells, competitor human PD-1-His 10 µg/mL
T4 construct: whole, on cells; also called CHO-K1_PD-L1 cells; CHO-K1 cells stably expressing PD-L1 antigen

[5] = target: T1, PD-L1 antigen (human PD-L1 protein, …); test: BLI (Octet RED 96e), cross-species series, antibody on anti-human Fc tips, human PD-L1 as analyte
[6] = target: T2, CD47 antigen expressed on the cell …; test: FACS on Expi-CHO_CD47 cells, anti-human IgG Fc APC
[7] = target: T3, CD47 antigen (human CD47 protein, Octet …); test: BLI (Octet RED 96e), cross-species series, antibody on anti-human Fc tips, human CD47 as analyte
[8] = target: T4, PD-L1 antigen expressed on the cell …; test: FACS on CHO-K1_PD-L1 cells, anti-human IgG Fc APC
[9] = target: T5, cynomolgus monkey CD47 antigen (cynomolgus monkey, UniProt A0A2K5X523 19-139); test: BLI (Octet RED 96e), cross-species series, antibody on anti-human Fc tips, cynomolgus CD47 as analyte
T5 construct: also called Cynomolgus CD47

[10] = target: T6, cynomolgus monkey PD-L1 antigen (cynomolgus monkey, UniProt G7PSE7 19-238); test: BLI (Octet RED 96e), cross-species series, antibody on anti-human Fc tips, cynomolgus PD-L1 as analyte
T6 construct: also called Cynomolgus PD-L1

[11] = target: T4, PD-L1 antigen expressed on the cell …; test: cell-based or functional assay
mouse CD47 antigen = target: T7, mouse CD47 antigen (mouse, UniProt Q61735 19-140, limits assumed); test: BLI (Octet RED 96e), antibody on anti-human Fc tips, antigen as analyte
T7 sequence (looked up): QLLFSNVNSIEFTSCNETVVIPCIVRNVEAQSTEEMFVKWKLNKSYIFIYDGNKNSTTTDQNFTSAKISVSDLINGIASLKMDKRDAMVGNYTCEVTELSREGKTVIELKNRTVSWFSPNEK

[12] = target: T1, PD-L1 antigen (human PD-L1 protein, …); test: BLI (Octet RED 96e), antibody on anti-human Fc tips, antigen as analyte, 1:1 global fit

T6 sequence (G7PSE7 entry or part of it): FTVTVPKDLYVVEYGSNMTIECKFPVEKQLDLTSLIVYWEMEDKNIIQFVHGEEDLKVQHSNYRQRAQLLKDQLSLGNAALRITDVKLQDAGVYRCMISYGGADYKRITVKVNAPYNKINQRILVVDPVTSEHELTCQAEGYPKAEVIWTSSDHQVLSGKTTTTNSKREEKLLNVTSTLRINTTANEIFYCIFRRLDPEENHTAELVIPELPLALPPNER

B1: anti-PD-L1xCD47 trivalent HCAb (PPC Nb-IgG4) (bispecific antibody)
heavy: QVQLVESGGGLVQPGGSLRLSCAASGFTFSSFAMSWVRQAPGKGLEWVSDINTGGDSTDYADSVKGRFTISRDNAKNTLYLQMNSLKPEDTAVYYCAKGPKEMVHVYSQRGQGTQVTVSSGGSGGGPSQVQLVESGGGLVQPGGSLRLSCAASGFTFSSFAMSWVRQAPGKGLEWVSDINTGGDSTDYADSVKGRFTISRDNAKNTLYLQMNSLKPEDTAVYYCAKGPKEMVHVYSQRGQGTQVTVSSGGSGGSGGSQVQLVESGGGLVQPGGSLNLSCAVSGLTFFRKYAVGWARQVPGKGLERVSRIYSDRRIEYLDAVKGRFTISRDNAKNTVYLQMNSLKTEDTAVYYCATGLRVGLTGWDEYDYWGQGTQVTVSSGPGGP[sequence of human IgG4 Fc with S228P L445P (EU numbers) not given]
notes: anti-PD-L1 sdAb x anti-PD-L1 sdAb x anti-CD47 sdAb fused to human IgG4 Fc; also called anti-PD-L1xCD47 HCAb; anti-PD-L1xCD47 3-valent HCAb
[1]
  koff: 0.00242 s⁻¹
  kon: 354000 M⁻¹ s⁻¹
[2]
  IC50: 22.4 nM
[3]
  Kd: 3.62 nM
  koff: 0.00201 s⁻¹
  kon: 554000 M⁻¹ s⁻¹
[4]
  IC50: 9.15 nM

B2: humanized anti-PD-L1xCD47 trivalent HCAb (hPPC Nb-IgG4) (bispecific antibody)
heavy: B1 heavy with Q1E, Q129E, Q258E
notes: Humanized (first residue Q to E in each sdAb) form of PPC Nb-IgG4 with human IgG4 Fc; also called humanized anti-PD-L1xCD47 HCAb; humanized anti-PD-L1xCD47 3-valent HCAb
[5]
  koff: 0.00254 s⁻¹
  kon: 376000 M⁻¹ s⁻¹
[1]
  koff: 0.00254 s⁻¹
  kon: 376000 M⁻¹ s⁻¹
[2]
  IC50: 33 nM
[6]
  EC50: 22.7 nM
[7]
  Kd: 3.34 nM
  koff: 0.00289 s⁻¹
  kon: 866000 M⁻¹ s⁻¹
[8]
  EC50: 11.5 nM
[9]
  Kd: 6.91 nM
  koff: 0.00161 s⁻¹
  kon: 234000 M⁻¹ s⁻¹
[10]
  Kd: 8.17 nM
  koff: 0.0029 s⁻¹
  kon: 356000 M⁻¹ s⁻¹
[3]
  Kd: 3.34 nM
  koff: 0.00289 s⁻¹
  kon: 866000 M⁻¹ s⁻¹
[11]
  IFN-gamma production by CD4+ T cells in mixed lymphocyte reaction (MoDCs express PD-L1), EC50: 0.18 nM
  IL-2 production by CD4+ T cells in mixed lymphocyte reaction (MoDCs express PD-L1), EC50: 0.08 nM
Mouse CD47 antigen
  binding result: no binding (tested: antigen 12.5 to 200 nM)
[4]
  IC50: 6.83 nM

B3: anti-PD-L1 bivalent HCAb (PP Nb-IgG4) (Fc fusion)
heavy: QVQLVESGGGLVQPGGSLRLSCAASGFTFSSFAMSWVRQAPGKGLEWVSDINTGGDSTDYADSVKGRFTISRDNAKNTLYLQMNSLKPEDTAVYYCAKGPKEMVHVYSQRGQGTQVTVSSGGSGGSQVQLVESGGGLVQPGGSLRLSCAASGFTFSSFAMSWVRQAPGKGLEWVSDINTGGDSTDYADSVKGRFTISRDNAKNTLYLQMNSLKPEDTAVYYCAKGPKEMVHVYSQRGQGTQVTVSSGPGGP[sequence of human IgG4 Fc with S228P L445P (EU numbers) not given]
notes: Two copies of PDL1 Nb#01 joined by GGSGGS and fused to human IgG4 Fc; also called anti-PD-L1 2-valent HCAb
[8]
  EC50: 1.93 nM
[12]
  Kd: 4.58 nM
  koff: 0.00184 s⁻¹
  kon: 402000 M⁻¹ s⁻¹
[4]
  IC50: 2.86 nM
